{"source": "the supplement of paper PMC3334620", "note": "The full ranking holds about 33,000 sequences; the median of “E-score (-0.5 to 0.5)” is about -0.021, and the highest 2% start at about 0.32. The list shows a part of the results.", "data": [{"target": "T1, Zap1 (UniProt P47043)", "T1 sequence": "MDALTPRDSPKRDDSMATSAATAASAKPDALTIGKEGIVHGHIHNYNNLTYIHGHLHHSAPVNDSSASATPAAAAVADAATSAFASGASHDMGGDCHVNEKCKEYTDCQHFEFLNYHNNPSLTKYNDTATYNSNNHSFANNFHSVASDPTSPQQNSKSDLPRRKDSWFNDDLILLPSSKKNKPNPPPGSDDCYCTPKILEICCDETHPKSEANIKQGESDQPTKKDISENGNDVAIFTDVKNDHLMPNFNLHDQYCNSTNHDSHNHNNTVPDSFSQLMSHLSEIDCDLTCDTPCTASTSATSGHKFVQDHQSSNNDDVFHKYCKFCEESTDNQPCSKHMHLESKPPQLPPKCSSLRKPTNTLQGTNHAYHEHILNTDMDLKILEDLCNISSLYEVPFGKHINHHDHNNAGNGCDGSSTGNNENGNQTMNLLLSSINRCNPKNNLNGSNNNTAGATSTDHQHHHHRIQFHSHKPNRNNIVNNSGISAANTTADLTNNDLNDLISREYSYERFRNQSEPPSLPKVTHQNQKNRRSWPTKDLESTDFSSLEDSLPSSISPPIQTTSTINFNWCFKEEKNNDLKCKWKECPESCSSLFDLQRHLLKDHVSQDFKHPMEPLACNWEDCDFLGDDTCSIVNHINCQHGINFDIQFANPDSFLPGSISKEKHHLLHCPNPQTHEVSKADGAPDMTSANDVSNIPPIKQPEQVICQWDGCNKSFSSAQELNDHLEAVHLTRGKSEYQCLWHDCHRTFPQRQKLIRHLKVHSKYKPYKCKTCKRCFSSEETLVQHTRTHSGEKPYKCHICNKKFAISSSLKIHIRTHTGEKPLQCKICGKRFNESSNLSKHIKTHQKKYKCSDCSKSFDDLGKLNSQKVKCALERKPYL", "assay": "PBM E-score (8-mer binding enrichment) (E-score (-0.5 to 0.5)); higher = stronger / more preferred TF binding; most listed sequences are background and not binding sites", "conditions": "protein concentration: 200 nM; construct: GST-full length", "method_in_brief": "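Each ungapped eight-base word and its reverse complement, pooled, received an E-score from the Universal PBM Analysis Suite. Underlying scans, normalised with masliner, recorded fluorescent anti-GST bound to GST-tagged yeast transcription factors. These were applied at about 100-200 nM to universal all-10-mer Agilent arrays double-stranded by primer extension.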", "values": [{"sequence": "ATCCGAGG", "PBM E-score": -0.0507}, {"sequence": "AAATCGAA", "PBM E-score": -0.135}, {"sequence": "GATGGTTA", "PBM E-score": 0.392}, {"sequence": "CAGACAAG", "PBM E-score": -0.0485}, {"sequence": "CAGGCCAG", "PBM E-score": -0.129}, {"sequence": "CCAGGAGG", "PBM E-score": 0.0376}, {"sequence": "CAACAGAA", "PBM E-score": -0.0272}, {"sequence": "ATTAGAAG", "PBM E-score": 0.0178}, {"sequence": "GGGGGAAA", "PBM E-score": -0.115}, {"sequence": "CTAAATGC", "PBM E-score": -0.118}, {"sequence": "AAAGGGAA", "PBM E-score": -0.0936}, {"sequence": "CAGTATAC", "PBM E-score": -0.0518}, {"sequence": "AACGAATG", "PBM E-score": 0.126}, {"sequence": "CAAATACG", "PBM E-score": -0.112}, {"sequence": "CGGGGTTC", "PBM E-score": 0.168}, {"sequence": "CAAAGAGC", "PBM E-score": -0.115}, {"sequence": "GGAGCCCC", "PBM E-score": -0.0703}, {"sequence": "CTTTTCAA", "PBM E-score": 0.308}, {"sequence": "ATTCAGCA", "PBM E-score": -0.0462}, {"sequence": "GAGGTTAC", "PBM E-score": 0.473}, {"sequence": "TGCCCCAA", "PBM E-score": -0.107}, {"sequence": "CGTAGACA", "PBM E-score": -0.217}, {"sequence": "CGCCGAGC", "PBM E-score": -0.25}, {"sequence": "CCTTGTGC", "PBM E-score": -0.0645}, {"sequence": "GAAAATAC", "PBM E-score": -0.0475}, {"sequence": "AAATCATG", "PBM E-score": 0.106}, {"sequence": "CCGTAAAG", "PBM E-score": -0.00265}, {"sequence": "GGCGCCCA", "PBM E-score": -0.131}, {"sequence": "CTGGTGGA", "PBM E-score": -0.225}, {"sequence": "CCAACGGA", "PBM E-score": -0.179}, {"sequence": "AGCGCACT", "PBM E-score": -0.293}, {"sequence": "ACCATCGG", "PBM E-score": 0.15}, {"sequence": "AACGATCT", "PBM E-score": -0.09}, {"sequence": "ATACAGGA", "PBM E-score": -0.0579}, {"sequence": "GCTACTCA", "PBM E-score": 0.00318}, {"sequence": "ACCGCGTA", "PBM E-score": 0.155}, {"sequence": "CTCAACTC", "PBM E-score": 0.0636}, {"sequence": "AGAAACTC", "PBM E-score": -0.0693}, {"sequence": "CCGGTCAC", "PBM E-score": 0.222}, {"sequence": "AGGGACCA", "PBM E-score": -0.0766}, {"sequence": "GCTCCGCC", "PBM E-score": -0.185}, {"sequence": "AGTCTACC", "PBM E-score": -0.00157}, {"sequence": "ACTGTTAG", "PBM E-score": 0.00029}, {"sequence": "GCACGAGC", "PBM E-score": -0.184}, {"sequence": "ACGTTCGG", "PBM E-score": -0.107}, {"sequence": "AGAAACAT", "PBM E-score": 0.167}, {"sequence": "GCATAGAC", "PBM E-score": -0.117}, {"sequence": "CACTAACC", "PBM E-score": 0.151}, {"sequence": "GACACCCC", "PBM E-score": 0.0571}, {"sequence": "AGGACAGC", "PBM E-score": -0.164}, {"sequence": "CGAAGTGA", "PBM E-score": 0.00648}, {"sequence": "ACAAGTGA", "PBM E-score": -0.114}, {"sequence": "GCGTACTA", "PBM E-score": -0.121}, {"sequence": "AAGACGAT", "PBM E-score": -0.118}, {"sequence": "ATGAGCAA", "PBM E-score": -0.0417}, {"sequence": "AGCGCGCC", "PBM E-score": -0.173}, {"sequence": "AGATGCCT", "PBM E-score": -0.226}, {"sequence": "CAAATCAC", "PBM E-score": -0.0481}, {"sequence": "AGTAAACG", "PBM E-score": -0.0697}, {"sequence": "CGATGAAA", "PBM E-score": 0.0264}, {"sequence": "CATATGGG", "PBM E-score": 0.118}, {"sequence": "GCGCCAAA", "PBM E-score": -0.0448}, {"sequence": "GTCGCACA", "PBM E-score": 0.0353}, {"sequence": "GCCTCCGC", "PBM E-score": -0.0269}, {"sequence": "CCTCGGAC", "PBM E-score": -0.0866}, {"sequence": "ACTCGACG", "PBM E-score": -0.103}, {"sequence": "CCGATTAA", "PBM E-score": -0.00812}, {"sequence": "GCCGTCCC", "PBM E-score": -0.223}, {"sequence": "AATACTTC", "PBM E-score": -0.124}, {"sequence": "ACATCGTC", "PBM E-score": -0.125}, {"sequence": "CATTGTCC", "PBM E-score": 0.0125}, {"sequence": "ACCTCTAC", "PBM E-score": 0.259}, {"sequence": "GGACCCCA", "PBM E-score": 0.213}, {"sequence": "CGGTGCAG", "PBM E-score": -0.193}, {"sequence": "GAGAGGTA", "PBM E-score": 0.243}, {"sequence": "CAACTTTC", "PBM E-score": 0.0376}, {"sequence": "CTCTTTGC", "PBM E-score": -0.0604}, {"sequence": "AACAGTTC", "PBM E-score": -0.00882}, {"sequence": "GTTAACAA", "PBM E-score": 0.095}, {"sequence": "AAGACGGA", "PBM E-score": 0.0457}, {"sequence": "CTCGACCC", "PBM E-score": 0.0825}, {"sequence": "TATCTGAA", "PBM E-score": 0.0676}, {"sequence": "GAAGAGAA", "PBM E-score": -0.0643}, {"sequence": "AATTTCGA", "PBM E-score": -0.179}, {"sequence": "ATAGGAGC", "PBM E-score": -0.15}, {"sequence": "GTAGATTA", "PBM E-score": 0.291}, {"sequence": "CTAGACAC", "PBM E-score": -0.174}, {"sequence": "CCTAATTC", "PBM E-score": -0.0585}, {"sequence": "ATAGGCTA", "PBM E-score": -0.0389}, {"sequence": "AAAAACCG", "PBM E-score": 0.227}, {"sequence": "TGCAGGAA", "PBM E-score": 0.118}, {"sequence": "AAGCACTA", "PBM E-score": -0.0287}, {"sequence": "CACTAGGA", "PBM E-score": -0.102}, {"sequence": "TATTGGCA", "PBM E-score": -0.00632}, {"sequence": "GCTCCTTA", "PBM E-score": -0.303}, {"sequence": "TCGCCCCA", "PBM E-score": -0.0608}, {"sequence": "AACTACGA", "PBM E-score": -0.0625}, {"sequence": "CCTCCGAC", "PBM E-score": -0.0986}, {"sequence": "GGAGCGCC", "PBM E-score": -0.21}, {"sequence": "CCACTACC", "PBM E-score": 0.178}, {"sequence": "CTAACACA", "PBM E-score": 0.112}, {"sequence": "CCCGAGCC", "PBM E-score": -0.165}, {"sequence": "ATGTTAGA", "PBM E-score": -0.079}, {"sequence": "CTATTATA", "PBM E-score": 0.131}, {"sequence": "AACAGGAA", "PBM E-score": -0.0406}, {"sequence": "CATCTGTC", "PBM E-score": -0.365}, {"sequence": "CCAGTCCA", "PBM E-score": -0.231}, {"sequence": "CCCAAATC", "PBM E-score": 0.0953}, {"sequence": "CCAGGATC", "PBM E-score": -0.0208}]}]}
